One molecule from article PMC7393505, “Functional 3D architecture in an intrinsically disordered E3 ligase domain facilitates ubiquitin transfer” (Nature Communications, 2020) can be followed below.

The assay deals with T1, RING Finger Protein 4 (RNF4), full-length, wild type (C55S, C95S background) (Rattus norvegicus, UniProt O88846 1-194, C55S | C95S).
T1 construct: Used unlabelled in the FP titration; also called RNF4 WT; source: E. coli BL21 (DE3), pLOU3 vector, purified (Ni-NTA, TEV cleavage)
T1 sequence (looked up): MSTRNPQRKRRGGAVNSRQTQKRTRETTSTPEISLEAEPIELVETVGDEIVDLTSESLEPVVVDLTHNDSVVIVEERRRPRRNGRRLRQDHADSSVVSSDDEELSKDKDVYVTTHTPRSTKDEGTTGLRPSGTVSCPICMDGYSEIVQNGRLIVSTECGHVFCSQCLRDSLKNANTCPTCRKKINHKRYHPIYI
Kind of assay: fluorescence polarisation; unlabelled RNF4 titrated against 1 µM 4×SUMO-Alexa488; 50 mM Tris, 150 mM NaCl, 0.5 mM TCEP, pH 7.5; room temperature, 10 min before measuring FP. The note with it: both partners purified. For orientation: Fluorescence polarisation rises when a labelled molecule tumbles more slowly, as on binding a larger partner.

B1: 4×SUMO2 linear fusion (C47A) with a single C-terminal cysteine labelled with Alexa488 (other)
chain: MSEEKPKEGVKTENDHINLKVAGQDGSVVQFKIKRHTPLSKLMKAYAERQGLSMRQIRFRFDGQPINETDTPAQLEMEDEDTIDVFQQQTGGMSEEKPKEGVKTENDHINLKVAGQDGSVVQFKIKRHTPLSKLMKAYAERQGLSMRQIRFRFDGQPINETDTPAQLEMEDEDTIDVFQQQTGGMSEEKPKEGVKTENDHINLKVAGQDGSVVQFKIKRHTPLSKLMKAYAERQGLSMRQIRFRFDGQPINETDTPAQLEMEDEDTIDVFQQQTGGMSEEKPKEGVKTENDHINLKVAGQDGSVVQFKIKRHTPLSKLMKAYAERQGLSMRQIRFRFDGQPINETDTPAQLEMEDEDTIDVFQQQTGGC
modifications: Alexa488 on the single cysteine at the C-terminus
In the case of B1, the Kd (in general, the equilibrium constant for the complex coming apart) is 1.6 µM.
